In PubChem BioAssay AID1508642 (National Center for Advancing Translational Sciences (NCATS), 2021):
About 200 (0.47%) of roughly 43,000 compounds were called active. Inconclusive results, whose numbers are uncertain, are shown with a selection of clear calls. The call rests on the fitted dose curve; in most records, active means well fitted cell-killing curve with a large enough effect; inconclusive means small, poorly fitted or top-dose-only effect, or effect the other way; inactive means flat fitted curve, though single readings scatter. Where the call is inconclusive, the potency comes from a doubtful curve fit.

Experiment: Cell viability qHTS assay in S16 Pmp22-F2sN cells; further: nearly all actives have a fitted effect of over 65% in size
Details: S16 Pmp22-F2sN Schwann cells viability, CellTiter-Glo, 24 h; activity change, negative = cytotoxicity: at 57.5 µM (top of the series)
Outline: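 Viability was measured by CellTiter-Glo luminescence (15 min, room temperature). This followed 24 h at 37 °C of compound exposure (23 nL pin transfer) in S16 Pmp22-F2sN Schwann cells, 500-1,000 per well.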
On the % scale 0 is the no-effect control and ±100 the full control effect; potency means the concentration at half of the fitted maximal effect; tags describe the fitted curve by direction and shape.

SMILES | Potency | activity change, negative = cytotoxicity
O=S(=O)(NCC(c1ccco1)N1CCOCC1)c1cc(F)ccc1F (stereo not given) | inconclusive: 39.8 µM [rising, partial curve, poor fit] | –
O=C(CCc1ccccc1)N(Cc1cccnc1)c1nc2c(F)cccc2s1 | inconclusive: 20 µM [cytotoxic, single point] | –
Cc1cc(S(=O)(=O)NCC(c2ccco2)S(=O)(=O)c2ccccc2)ccc1F (stereo not given) | inconclusive: 20 µM [cytotoxic, partial curve] | –
O=C(Cn1ccc2cc(S(=O)(=O)N3CCCCC3)ccc21)NCc1cccc(Cl)c1 | inconclusive: 31.6 µM [cytotoxic, single point] | –
Cc1cccn2c(=O)cc(COc3cccc(NC(=O)COc4ccc(F)cc4)c3)nc12 | inconclusive: 31.6 µM [cytotoxic, single point] | –
CNC(=O)c1c(NC(=O)/C=C/c2ccccc2Cl)sc2c1CCC2 | inconclusive: 3.98 µM [rising, full curve] | –
COc1ccc(NC(=O)c2ccco2)cc1NC(=O)COc1ccccc1 | – | inactive: 14%
CCc1ccc(S(=O)(=O)c2cn(C)c3cc(N4CCC(C)CC4)c(F)cc3c2=O)cc1 | inconclusive: 0.178 µM [rising, full curve, poor fit] | –
O=c1c(S(=O)(=O)c2ccccc2)cn(Cc2cccc(F)c2)c2cc(N3CCOCC3)c(F)cc12 | inconclusive: 39.8 µM [cytotoxic, single point] | –
CCOc1ccc(NC(=O)c2cnn3c2NC(c2cccc(OC)c2)=CC3c2ccccc2)cc1 (stereo not given) | inconclusive: 39.8 µM [cytotoxic, single point] | –
CC(=O)Nc1ccc(NC(=O)CSc2nc3ccccc3nc2N2CCC(C)CC2)cc1 | inconclusive: 7.08 µM [cytotoxic, full curve, poor fit] | –
CCOc1ccccc1C(=O)Nc1c(C(=O)Nc2ccc(F)cc2)oc2ccccc12 | – | inactive: 19.7%
CCOc1ccc(C2Nc3c(C)cccc3-c3cc(C)nn32)cc1 (stereo not given) | – | inactive: -26.4%
Cc1cccc(C(=O)N2CCc3cc(CNS(=O)(=O)c4ccc(Cl)s4)ccc32)c1 | inconclusive: 22.4 µM [rising, single point] | –
Cc1ccccc1CN1C(=O)c2ccccc2Sc2ccc(C(=O)N3CCCC3)cc21 | – | inactive: -15.2%
O=C(NCc1ccccc1)c1ccc(CSc2nc3cccnc3n2Cc2cccc(F)c2)cc1 | inconclusive: 39.8 µM [cytotoxic, single point] | –
CC(=O)C1=C(c2ccc(C)c(C)c2)N(C(C)=O)n2c(nnc2-c2ccc(Cl)cc2)S1 | inconclusive: 39.8 µM [cytotoxic, single point] | –
CCOC(=O)C(C)NC(=O)c1c(C)oc2ncn(CC(C)C)c(=O)c12 (stereo not given) | inconclusive: 39.8 µM [rising, single point] | –
CCC(=O)C1=C(c2cccc(OC)c2)N(C(=O)CC)n2c(nnc2C2CCCCC2)S1 | inconclusive: 39.8 µM [cytotoxic, single point] | –
Cc1nn(-c2ccc(N3CCOCC3)nn2)c(C)c1CCC(=O)NCc1ccc(F)cc1 | inconclusive: 0.398 µM [cytotoxic, full curve, poor fit] | –

SMILES | Potency | activity change, negative = cytotoxicity
Cc1ccc(Cl)cc1N1CCN(CCNC(=O)Nc2ccccc2Cl)CC1 | inconclusive: 39.8 µM [cytotoxic, single point] | –
CSc1cccc(NC(=O)C2CCN(C(=O)c3cnn(-c4ccccc4)c3-n3cccc3)CC2)c1 | inconclusive: 25.1 µM [cytotoxic, single point] | –
CCc1ccc(-n2c(=O)c3c4c(sc3n(CC(=O)c3ccc(Cl)cc3)c2=O)CCC4)cc1 | inconclusive: 2.51 µM [rising, full curve, poor fit] | –
Cc1ccc(Cl)cc1NC(=O)C(=O)NCC(c1cccnc1)N1CCc2ccccc21 (stereo not given) | inconclusive: 35.5 µM [cytotoxic, single point] | –
COc1ccc2nc(NC(=O)c3nc(S(=O)(=O)Cc4cccc(C)c4)ncc3Cl)sc2c1 | active: 10 µM | –
Cc1cc(NC(=O)C2CCN(S(=O)(=O)c3ccc4[nH]c(=O)oc4c3)CC2)ccc1Br | – | inactive: -1.08%
Cc1ccc(C)c(Cn2c3ccccc3c3cnn(CC(=O)NCc4ccccc4)c(=O)c32)c1 | inconclusive: 6.31 µM [rising, partial curve, poor fit] | –
Fc1ccccc1Cn1c(-c2ccccc2)nc2ccccc21 | inconclusive: 39.8 µM [cytotoxic, partial curve, poor fit] | –
CCOC(=O)CSc1nc2sc3c(c2c(=O)n1-c1ccccc1)CCC(C(C)(C)C)C3 (stereo not given) | – | inactive: -2.29%
CCOc1ccc(NC(=O)c2cnc(Nc3ccccc3OC)c3ccccc23)cc1 | inconclusive: 39.8 µM [rising, single point] | –
Cn1c(=O)oc2cc(S(=O)(=O)N3CCC(C(=O)Nc4ccc(F)c(Cl)c4)CC3)ccc21 | inconclusive: 28.2 µM [cytotoxic, partial curve, poor fit] | –
CCc1ccc(S(=O)(=O)c2nnn3c2nc(Nc2ccc(F)cc2)c2cc(Cl)ccc23)cc1 | inconclusive: 14.1 µM [cytotoxic, partial curve] | –
CCc1ccc(S(=O)(=O)N(C(=O)Oc2ccccc2)c2ccc3oc(C)c(C(=O)OC)c3c2)cc1 | inconclusive: 14.1 µM [cytotoxic, partial curve] | –
CCN(CC)CCNC(=O)Nc1ccc2c(c1)N(Cc1ccccc1)C(=O)c1ccccc1S2 | inconclusive: 39.8 µM [cytotoxic, single point] | –
Cc1ccc(Cl)cc1-n1ncc2c(N3CCCCCC3)ncnc21 | inconclusive: 25.1 µM [cytotoxic, single point] | –
O=S(=O)(NCc1ccc(Cl)cc1)c1ccc(-c2cnc(C3CC3)o2)cc1 | inconclusive: 15.8 µM [cytotoxic, partial curve, poor fit] | –
Cc1c(-c2ccc(Cl)cc2)c(=O)oc2ccc(OC(=O)N3CCOCC3)cc12 | inconclusive: 31.6 µM [cytotoxic, partial curve, poor fit] | –
COc1cccc2cc(-c3nnc(Nc4c(F)cccc4F)s3)c(=O)oc12 | – | inactive: -1.5%
CC(=O)N1c2ccc(S(=O)(=O)NCCC(=O)Nc3ccc(Br)c(C)c3)cc2CC1C (stereo not given) | inconclusive: 8.91 µM [cytotoxic, full curve, poor fit] | –
CCN(CC)c1sc(S(=O)(=O)c2ccccc2)nc1S(=O)(=O)c1ccc(C)cc1 | inconclusive: 10 µM [cytotoxic, partial curve, poor fit] | –

SMILES | Potency | activity change, negative = cytotoxicity
Cc1cccc(NC(=O)c2sc3nc(N4CCOCC4)c4c(c3c2N)CC(C)(C)OC4)c1 | inconclusive: 28.2 µM [cytotoxic, partial curve, poor fit] | –
Cc1ccc(Cn2c(CN3CCC(C(=O)NCCc4ccccc4)CC3)cc3ccccc32)cc1 | inconclusive: 39.8 µM [cytotoxic, single point] | –
CCOc1ccc(N(C(C)C(=O)Nc2cc(Cl)ccc2OC)S(C)(=O)=O)cc1 (stereo not given) | inconclusive: 3.55 µM [cytotoxic, full curve, poor fit] | –
O=C(Nc1ccc(OC(F)(F)F)cc1)C1CCN(S(=O)(=O)c2cccs2)CC1 | inconclusive: 25.1 µM [cytotoxic, single point] | –
Cc1ccccc1-c1noc(-c2ccc(N3CCOCC3)c([N+](=O)[O-])c2)n1 | – | inactive: 13.3%
CC(C)(C)OC(=O)N1CCC(c2c(C(=O)NCCc3ccccc3)cnn2-c2ccc(F)cc2)CC1 | inconclusive: 39.8 µM [cytotoxic, single point] | –
CCN(CC)S(=O)(=O)c1ccc(C(=O)N2CC(=O)Nc3ccc(F)cc3C2c2ccccc2)cc1 (stereo not given) | inconclusive: 11.2 µM [cytotoxic, partial curve, poor fit] | –
CC(=O)N1c2ccc(S(=O)(=O)NCC3CCC(C(=O)Nc4cc(C)ccc4C)CC3)cc2CC1C (stereo not given) | inconclusive: 3.98 µM [cytotoxic, partial curve] | –
COc1cc(NC(=O)c2c(C)oc3c2C2=NCCN2C=N3)cc(OC)c1OC | inconclusive: 0.891 µM [cytotoxic, full curve, poor fit] | –
CCN(Cc1ccccc1)S(=O)(=O)c1cc(C(=O)Nc2cc(Cl)cc(Cl)c2)ccc1F | inconclusive: 20 µM [cytotoxic, single point] | –
O=S(=O)(NCC(c1cccs1)S(=O)(=O)c1ccccc1)c1ccc(F)c(C(F)(F)F)c1 (stereo not given) | active: 20 µM | –
COc1cc(CN(C(=O)c2ccc(OC(C)C)cc2)c2ccccn2)cc(OC)c1OC | – | inactive: -2.77%
CCCCc1ccc(C(=O)Nc2ccc3nc(N4CCN(CC)CC4)cc(C)c3c2)cc1 | inconclusive: 39.8 µM [cytotoxic, single point] | –
Cc1cc(Nc2nc3ccccc3c3nnc(C)n23)ccc1Br | inconclusive: 14.1 µM [cytotoxic, partial curve, poor fit] | –
Cc1ccc(O)c(NC(=O)CCS(=O)(=O)c2nc(-c3cccs3)cc(C(F)(F)F)n2)c1 | inconclusive: 35.5 µM [cytotoxic, single point] | –
Cc1cccc(-n2cnc3cc(C(=O)NCc4ccccc4Cl)ccc32)c1 | inconclusive: 28.2 µM [cytotoxic, partial curve] | –
Cc1ccc(C(C)C)c(OCC(=O)Nc2cc(-c3nc4ccccc4[nH]3)ccc2C)c1 | inconclusive: 39.8 µM [cytotoxic, single point] | –
COc1ccc(-c2onc(C)c2C)cc1S(=O)(=O)NCc1cccs1 | – | inactive: -12.4%
CCOC(=O)c1sc2ncn(CC(=O)Nc3ccc(F)cc3F)c(=O)c2c1C | – | inactive: 11.2%
Cc1ccc(C)c(OCC(=O)Nc2sc3c(c2C#N)CCCC3)c1C | inconclusive: 0.708 µM [cytotoxic, partial curve, poor fit] | –
